About 450 (0.94%) of roughly 48,000 compounds were called active. Roughly 19% stayed inconclusive and do not appear here. The call rests on the fitted dose curve; in most records, active means well fitted inhibition curve with a large enough effect; inconclusive means small, poorly fitted or top-dose-only effect; inactive means no such curve, though single readings can be large or run the other way. The list shows a part of the results.
assay: Primary qHTS for Identification of Small Molecule Inhibitors of Huntingtin Promoter Activity; details: HEK293 HTT promoter firefly luciferase reporter (activity 0% = vehicle and -100% = no light), 24 h; series mostly up to 57.5 µM; activity change, negative = inhibition: at the top concentration; further: nearly all actives have a fitted effect of over 50% in size
Text: Assay Provider: Russell L. Margolis M.D.
Department Neurology, Johns Hopkins University School of Medicine, Baltimore, MD
Huntington's Disease (HD) is a neurodegenerative disorder caused by a CAG repeat expansion in exon 1 of huntingtin (HTT). While there are currently no disease-modifying treatments for HD, recent efforts have focused on development of nucleotide-based therapeutics to lower HTT expression. As an alternative to siRNA or oligonucleotide methods, we hypothesized that suppression of HTT expression might be accomplished by small molecules that either (1) directly decrease HTT expression by suppressing HTT promoter activity or (2) indirectly decrease HTT expression by increasing the promoter activity of HTT-AS, the gene antisense to HTT that appears to inhibit expression of HTT.
We developed and employed a high throughput screen for modifiers of HTT and HTT-AS promoter activity using luminescent reporter HEK293 cells; of the 52,041 compounds tested, we identified 898 replicable hits. We used a rigorous stepwise approach to assess compound toxicity and the capacity of the compounds to specifically lower huntingtin protein in 5 different cell lines, including HEK293 cells, HD lymphoblastoid cells, mouse primary neurons, HD iPSCs differentiated into cortical-like neurons, and HD hESCs. We found no compounds which were able to lower huntingtin without lowering cell viability in all assays, though the potential efficacy of a few compounds at non-toxic doses could not be excluded.
SEQUENCE No. (1, 2, 3, etc.); […] (e.g., Cells, Incubation, Reagent, etc.); VALUE and DESCRIPTION.
1; Reagent; 4 uL; 2,500 Hek293 luciferase reporter cells per wells
3; Compound; 23 nL; Control inhibitor / compound library
5; Reagent; 2.5 uL; Firefly Luc reagent; Dual-Glo Luciferase Reporter Assay System (Promega)
6; Time; 10 min; room temperature incubation
7; Detection; Luminescence; FLuc
NOTES (numbers refer to sequence above)
1; High-throughput screening, measuring luminescence from a Hek293 luciferase reporter, was performed in 1,536 well white-walled tissue-culture treated plates. 2,500 cells were plated in 4 µL of Opti-MEM per well using a Multidrop Combi Reagent Dispenser (ThermoFisher).
2; Assay plates were cultured for 24 hours.
3; Control inhibitor (PTC124; final concentration of 50 uM) and compound library (at final concentrations of 460 nM - 57.5 uM) were added to the assay plate using the Kalypsis Pintool Robotic System equipped with 1536 pinheads.
4; Cells were then incubated for 24 hours at 37 degrees C prior to luminescence measurements.
5; In all cases, luminescence was measured using the Dual-Glo Luciferase Reporter Assay System (Promega) following the manufacturer's instructions.
6; Room temperature incubation.
7; Luminescence signal was obtained using the PerkinElmer ViewLux plate reader. Results were normalized to vehicle control (0% activity) and zero RLU (-100% activity).

Activity change, negative = inhibition, inactive:
COc1ccc(Cn2c(SCC(=O)N(C)Cc3ccccc3)nc3ccccc32)cc1 4.19%
Cc1ccc(NC(=O)Cn2c(=O)nc(-c3ccccc3)c3ccccc32)cc1F -15.4%
Cc1cccc(-c2noc(-c3ccc(N4CCOCC4)c([N+](=O)[O-])c3)n2)c1 -14.8%
O=C(Nc1cnc(N2CCN(c3ccccc3)CC2)c(C(=O)O)c1)c1cccs1 -8.26%
CC1CCCCN1C(=O)c1cc(-c2ccc(Br)cc2)on1 (stereo not given) 71.6%
COc1ccc(C2N=C(N)Nc3nc4ccccc4n32)cc1 (stereo not given) -17.9%
CC1=C(C(=O)N2CCN(c3cccc(Cl)c3)CC2)C2(CCCCC2)OC1=O -13.1%
CCOC(=O)C1CCN(c2nc3c(S(=O)(=O)c4ccc(C)c(C)c4)nnn3c3ccc(Cl)cc23)CC1 -14.3%
CCN(C(=O)c1cc2c(=O)oc3ccc(C)cc3c2s1)c1ccccc1C -10.5%
CCN(CC)S(=O)(=O)c1ccc2nc(NC(=O)c3cncc(Br)c3)sc2c1 -21.4%
Cc1cccn2c(=O)c(C(=O)NC(C)c3ccccc3)cnc12 (stereo not given) 7.3%
COc1ccc(N2CCN(C(=O)CSc3n[nH]c(-c4ccccc4Cl)n3)CC2)cc1 -14.2%
Cc1ccc(C(=O)c2cn(Cc3ccc(Cl)cc3)c3nc(C)ccc3c2=O)cc1 -13.9%
Cc1cc(C)c(NC(=O)C(C)n2nnc3sc4c(c3c2=O)CCCC4)c(C)c1 (stereo not given) 15.7%
Cc1ccc(C)c(CN2C(=O)c3ccccc3S(=O)(=O)c3ccc(C(=O)NCCC4=CCCCC4)cc32)c1 -14.8%
Cc1cc(NC(=O)CN2C(=O)c3cccnc3Sc3ccccc32)ccc1Br 0.702%
COc1ccc(OC)c2sc(N(Cc3cccnc3)C(=O)c3ccco3)nc12 -29.9%
CCc1ccccc1NC(=O)Nc1nnc(N(CC)c2ccccc2)s1 -17.5%
CCN1CCN(c2ncc3c(n2)CC(c2ccccc2O)CC3=O)CC1 (stereo not given) -15.3%
Cc1ccc(CNC(=O)c2cc(-c3ccc(Cl)cc3)on2)cc1 16.5%
Cc1ccc2oc(=O)c(S(=O)(=O)c3ccc(C(C)(C)C)cc3)cc2c1 -19.6%
CN(C)c1ccc(CNC(=O)CN2CCSc3ccc(S(=O)(=O)N(C)C)cc32)cc1 -28.3%
Cc1ccc(CNC(=O)CNS(=O)(=O)c2cccs2)cc1 0.29%
Cc1ccc(NC(=O)C2CCN(c3nn4cc(-c5ccc(C)cc5)nc4s3)CC2)cc1 19.4%
CCN(c1ccccc1)S(=O)(=O)c1nnc(NC(=O)COc2cccc(C)c2)s1 -7.2%
CC(C)(C)c1ccc(C(=O)Nc2sc3c(c2C#N)CCC(C(C)(C)C)C3)cc1 (stereo not given) 4.29%
CCOc1ccc(NC(=O)Cn2c(=O)n(CC(=O)NCc3ccccc3Cl)c(=O)c3sccc32)cc1 -12.4%
COc1cc(OC)c(NS(=O)(=O)c2c(C(=O)N3CCC(C)CC3)c(C)n(C)c2C)cc1Cl -18.5%
Cc1nnc(NC(=O)CSCc2cc(=O)c3ccccc3[nH]2)s1 -0.593%
COc1ccc(CCNC(=O)CCn2c(=O)c3ccccc3n(Cc3ccccc3)c2=O)cc1OC -12.7%
CC(C)c1nn2c(=O)cc(COC(=O)c3ccccc3NC(=O)c3cccc(Cl)c3)nc2s1 -14.8%
Cc1nc2ccn(Cc3cccnc3)c(=O)c2cc1C(=O)N1CCN(c2ccc(F)cc2)CC1 -16.3%
COC(=O)c1ccccc1NC(=O)c1cnc2c(-c3cccc(C)c3)c(C)nn2c1C -12.4%
CN(C)CCNc1oc(-c2ccc(COc3ccc(Cl)cc3)o2)nc1C#N -13.4%
Cc1cc(C)cc(Oc2nc3c(C)cccn3c(=O)c2/C=C(\C#N)c2nc3ccccc3s2)c1 -12.6%
COc1ccc(CCNC(=O)C(C)n2c(=O)cc(C(F)(F)F)c3c(C)nn(C)c32)cc1OC (stereo not given) -17.3%
COc1ccc(N2CCN(Cc3nnc(-c4cccc(Br)c4)o3)CC2)cc1 -5.6%
CCS(=O)(=O)N1CC(=O)N(c2ccc(Cl)cc2)C(C)(C(=O)NC2CCCCCC2)C1 (stereo not given) -13.7%
COc1ccc(CCn2c3c(c(=O)[nH]c2=O)C(NC(=O)c2ccc(C(C)(C)C)cc2)(C(F)(F)F)C(=O)N3)cc1OC (stereo not given) -18.5%
COc1ccccc1Cc1nc2ccccc2nc1SCC(=O)N1CCN(c2ccccc2)CC1 0.516%
COc1cccc(NC(=O)/C(C#N)=C/c2c(C)n(Cc3ccc(Cl)cc3)c3ccccc23)c1 -26.2%
CCOc1ccc(Nc2nc3c(S(=O)(=O)c4ccc(C(C)C)cc4)nnn3c3ccsc23)cc1 -5%
Cc1cc2nc(-c3ccc(NC(=O)c4cc5ccccc5o4)cc3)oc2cc1C 44.5%
Cc1ccccc1CN1C(=O)c2ccccc2S(=O)c2ccc(C(=O)NCc3ccc4c(c3)OCO4)cc21 (stereo not given) -17.7%
COc1cccc(CNC(=O)CCC(=O)N2CC(C)Sc3ccccc32)c1 (stereo not given) -19.5%
COc1ccc(CNC(=O)C(=O)Nc2cc(Cl)ccc2OC)cc1 -11% [at 11.5 µM]
COc1ccc(N2CCN(S(=O)(=O)CCNC(=O)c3c(F)cccc3Cl)CC2)cc1 -17.8%
CC(=O)Nc1cc(C(=O)Nc2ccc3c(c2)N(C)C(=O)c2ccccc2S3)ccc1C -7.1%
Cc1ccc(S(=O)(=O)c2nnn3c2nc(N2CCC(C(N)=O)CC2)c2cc(Cl)ccc23)cc1C -9.39%
Cc1nc2c(c(C)nn2C(C)(C)C)c(C)c1CCC(=O)Nc1ccc(Br)cc1Br -0.639%
CCC(=O)Nc1cc2nn(-c3ccc(C)cc3)nc2cc1C -61.7%
O=C(CCCN1CCC(O)(c2ccc(Br)cc2)CC1)c1ccc(F)cc1 1.48%
Cc1ccc(NC(=O)[C@@H](c2ccccc2)N2Cc3ccccc3C2=O)cc1F -29%
CCCc1nn2c(=O)cc(COC(=O)c3ccco3)nc2s1 -25.2%
COc1ccc(CCNC(=O)Cn2c(=O)c3cccn3c3ccccc32)cc1OC -9.73%
CCCCOc1ccccc1C1CC(=O)Nc2cc(OC)c(OC)cc21 (stereo not given) -26%
CCOC(=O)Cn1c(=O)n(CC2CCCO2)c2nc(-c3ccc(CC)cc3)nc(C(N)=O)c21 (stereo not given) -11.4%
O=C(CSc1ncc2c(n1)-c1ccc(Cl)cc1N(Cc1ccccc1)S2(=O)=O)Nc1ccccc1C(F)(F)F 16.1%
COC(=O)c1c(NC(=O)/C=C/c2ccc(OC)c(OC)c2)sc2c1CCC2 -6.51%
CCN(CC)c1cc2c(cc1F)c(=O)c(S(=O)(=O)c1ccccc1)cn2C -15.5%

Source: PubChem BioAssay AID1508623 (National Center for Advancing Translational Sciences (NCATS), 2021)
